According to publication PMC11475522:
These are yes or no findings as the source states them, for the method shown. In cells and extracts the contact can be indirect. Some entries that bind do so weakly or less than the wild type.

By UniProt entry, the sequences of proteins in these tests, tags left out.
UniProt Q00987: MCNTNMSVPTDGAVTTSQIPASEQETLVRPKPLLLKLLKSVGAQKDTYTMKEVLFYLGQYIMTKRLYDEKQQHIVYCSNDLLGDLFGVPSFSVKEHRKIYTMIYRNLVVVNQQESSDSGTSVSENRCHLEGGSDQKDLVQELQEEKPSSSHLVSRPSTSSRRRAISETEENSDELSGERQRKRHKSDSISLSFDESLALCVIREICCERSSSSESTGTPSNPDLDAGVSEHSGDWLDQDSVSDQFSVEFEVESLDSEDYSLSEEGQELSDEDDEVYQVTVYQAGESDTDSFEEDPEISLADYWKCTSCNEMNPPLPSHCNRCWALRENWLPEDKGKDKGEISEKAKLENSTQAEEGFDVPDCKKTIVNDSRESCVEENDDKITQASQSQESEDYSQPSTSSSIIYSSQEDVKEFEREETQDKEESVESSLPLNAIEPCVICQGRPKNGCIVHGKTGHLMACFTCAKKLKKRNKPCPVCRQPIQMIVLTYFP
UniProt Q13619: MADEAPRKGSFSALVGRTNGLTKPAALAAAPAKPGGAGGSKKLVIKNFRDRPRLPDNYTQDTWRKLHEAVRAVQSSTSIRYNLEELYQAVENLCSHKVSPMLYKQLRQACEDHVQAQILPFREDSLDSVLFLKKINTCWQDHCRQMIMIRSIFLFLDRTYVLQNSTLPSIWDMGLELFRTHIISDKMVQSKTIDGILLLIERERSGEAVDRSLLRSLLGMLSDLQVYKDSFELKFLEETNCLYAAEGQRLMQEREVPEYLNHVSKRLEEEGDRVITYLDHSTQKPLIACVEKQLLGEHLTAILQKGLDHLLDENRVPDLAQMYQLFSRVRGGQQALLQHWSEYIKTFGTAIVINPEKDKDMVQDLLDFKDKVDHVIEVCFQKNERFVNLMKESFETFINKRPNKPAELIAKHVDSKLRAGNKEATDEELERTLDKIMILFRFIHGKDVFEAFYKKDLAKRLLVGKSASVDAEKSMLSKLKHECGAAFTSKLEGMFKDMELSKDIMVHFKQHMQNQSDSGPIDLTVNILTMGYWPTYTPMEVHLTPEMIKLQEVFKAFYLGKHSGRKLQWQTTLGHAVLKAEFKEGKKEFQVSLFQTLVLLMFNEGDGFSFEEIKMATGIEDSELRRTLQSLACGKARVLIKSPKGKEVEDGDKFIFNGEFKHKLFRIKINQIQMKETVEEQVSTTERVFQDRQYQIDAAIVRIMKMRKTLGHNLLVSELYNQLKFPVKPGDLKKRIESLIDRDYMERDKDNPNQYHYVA

Target: Mdm2 (human (endogenous in A375)) (UniProt Q00987)
Assay: co-IP; 4B2 anti-Mdm2 antibody and protein G sepharose, A375 extracts in NP-40 buffer (1% NP-40, 150 mM NaCl, 50 mM Tris-HCl pH 8.0, 5 mM EDTA, 1 mM DTT), 4 °C; cells untreated or treated with MLN4924 (1 μM, 6 h); Western blot

With “non-NEDDylated (inactive) Cullin4A (from UniProt Q13619 1-759)” the binding was “binds”.
